Experimental data: patent US9072759B2 (priority 2008, dated 2015)

Experiments:
[1] = system: S. aureus 96:11480 Ery-R (MLSb); test: microbe, parasite or virus in culture; type: cell-based; conditions: for MIC: Staphylococcus aureus
[2] = system: S. pneumoniae 163 Ery-R (MefA); test: microbe, parasite or virus in culture; type: cell-based; conditions: for MIC: Streptococcus pneumoniae
[3] = system: S. pneumoniae 303 Ery-R (ermB); test: microbe, parasite or virus in culture; type: cell-based; conditions: for MIC: Streptococcus pneumoniae
[4] = system: H. influenzae 49247 Ery-S; test: microbe, parasite or virus in culture; type: cell-based; conditions: Haemophilus influenzae, 49247ERYS, read-out: Minimum inhibitory concentration, H. influenzae 49247 Ery-S
[5] = system: intraphagocytic S. aureus ATCC 25923 (THP-1 macrophages); test: microbe, parasite or virus in culture; type: cell-based
S. aureus ATCC 25923 [6] = test: microbe, parasite or virus in culture; type: cell-based; conditions: Staphylococcus aureus
S. aureus ATCC 25923 [7] = test: microbe, parasite or virus in culture; type: cell-based
[8] = system: intraphagocytic L. pneumophila ATCC 33153 (THP-1 macrophages); type: cell-based; conditions: L. p.; for Cs, static concentration at 24 h: intracellular
THP-1 macrophages = conditions: human
[9] = system: S. epidermidis (095-2777A)
[10] = system: intraphagocytic L. monocytogenes EGD (THP-1 macrophages); type: cell-based

CCC1OC(=O)C(C)C(=O)C(C)C(OC2OC(C)CC(N(C)C)C2O)C(C)(OC)CC(C)C(=O)C(C)C2N(CCCCn3cc(COc4c(Cl)cccc4Cl)nn3)C(=O)OC12C (stereo not drawn) [Entry 17b]
Minimum inhibitory concentration, S. aureus 96:11480 Ery-R (MLSb) [1]: ≤ 0.125 µg/mL

CC[C@H]1OC(=O)[C@H](C)C(=O)[C@H](C)[C@@H](O[C@@H]2O[C@H](C)C[C@H](N(C)C)[C@H]2O)[C@](C)(OC)C[C@@H](C)C(=O)[C@H](C)[C@H]2N(CCCCn3cnc(-c4cccnc4)c3)C(=O)O[C@]12C [TEL, Telithromycin]
MIC ([1]; read-out: MIC, S. aureus 96:11480 Ery R (MLSb)): ≤ 0.125 µg/mL | MIC ([1]; read-out: Minimum inhibitory concentration, S. aureus 96:11480 Ery-R (MLSb)): ≤ 0.125 µg/mL | MIC ([2]; read-out: MIC, S. pneumoniae 163 Ery-R (MefA)): ≤ 0.125 µg/mL | MIC ([2]; read-out: Minimum inhibitory concentration, S. pneumoniae 163 Ery-R (MefA)): ≤ 0.125 µg/mL | MIC ([3]; read-out: MIC, S. pneumoniae 303 Ery-R (ermB)): ≤ 0.125 µg/mL | MIC ([3]; read-out: Minimum inhibitory concentration, S. pneumoniae 303 Ery-R (ermB)): ≤ 0.125 µg/mL | MIC [4]: 4 µg/mL (≈ 4.93 µM) | Cs [5]: ~0.27 mg/L | Cs, static concentration at 24 h [5]: 0.63 mg/L | EC50 [5]: 0.097 x MIC | Intracellular activity (24 h): Emax [5]: −0.4 ± 0.2 Δ log cfu and −0.4 ± 0.1 Δ log cfu | Intracellular activity (24 h): Static dose [5]: ~0.23 mg/L and ~0.28 mg/L | EC50 ([5]; Staphylococcus aureus, ATCC25923, THP-1, 24 h): 0.024 µg/mL (≈ 0.0296 µM) | MIC (S. aureus ATCC 25923 [6]; ATCC25923, pH 5.5): 8 µg/mL (≈ 9.85 µM) | MIC (S. aureus ATCC 25923 [6]; ATCC25923, pH 7.4): 0.5 µg/mL (≈ 0.616 µM) | EC50 (S. aureus ATCC 25923 [7]): 0.46 x MIC | Emax (S. aureus ATCC 25923 [7]): −1.00 log10 units | EC50 (S. aureus ATCC 25923 [7]; Staphylococcus aureus, ATCC25923, 24 h): 0.12 µg/mL (≈ 0.148 µM) | Extracellular activity (24 h): Emax (S. aureus ATCC 25923 [7]; pH 5.5): −1.4 ± 0.9 Δ log cfu | Extracellular activity (24 h): Static dose (S. aureus ATCC 25923 [7]; pH 5.5): ~9.33 mg/L | Extracellular activity (24 h): Emax (S. aureus ATCC 25923 [7]; pH 7.4): −1.0 ± 0.4 Δ log cfu | Extracellular activity (24 h): Static dose (S. aureus ATCC 25923 [7]; pH 7.4): ~0.28 mg/L | Cs, static concentration at 24 h [8]: 0.06 mg/L | Emax ([8]; at 24 h compared to the post-phagocytosis inoculum): −0.63 Δ log10 CFU | accumulation level within 24 h (THP-1 macrophages): 21 fold | Antimicrobial activity (time kill curve) (S. aureus (ATCC 29213)): Cidal at 8X only | Antimicrobial activity (time kill curve) [9]: Static | Antimicrobial activity (time kill curve) (E. faecalis (ATCC 29212)): Static | Antimicrobial activity (time kill curve) (S. pneumoniae (075-241B)): Static | Antimicrobial activity (time kill curve) (S. pyogenes (117-1612A)): Cidal at 8X only (slow killing) | Antimicrobial activity (time kill curve) (S. pyogenes (088-11708A)): Cidal at 2X, 4X, 8X (slow killing) | Antimicrobial activity (time kill curve) (S. mitis (112-1885A)): Cidal at 2X, 4X, 8X

CCC1OC(=O)C(C)C(=O)C(C)C(OC2OC(C)CC(N(C)C)C2O)C(C)(OC)CC(C)C(=O)C(C)C2N(CCCCn3cc(-c4ccccn4)nn3)C(=O)OC12C (stereo not drawn) [Entry 14b]
Minimum inhibitory concentration, S. pneumoniae 303 Ery-R (ermB) [3]: ≤ 0.125 µg/mL

CCC1OC(=O)C(C)C(=O)C(C)C(OC2OC(C)CC(N(C)C)C2O)C(C)(OC)CC(C)C(=O)C(C)C2N(CCCCCn3cc(-c4ccccc4)nn3)C(=O)OC12C (stereo not drawn) [Entry 11c]
Minimum inhibitory concentration, S. aureus 96:11480 Ery-R (MLSb) [1]: ≤ 0.125 µg/mL

CCC1OC(=O)C(C)C(=O)C(C)C(OC2OC(C)CC(N(C)C)C2O)C(C)(OC)CC(C)C(=O)C(C)C2N(CCCCCn3cc(Cn4nnc5ccccc54)nn3)C(=O)OC12C (stereo not drawn) [Entry 18c]
Minimum inhibitory concentration, S. aureus 96:11480 Ery-R (MLSb) [1]: ≤ 0.125 µg/mL | Minimum inhibitory concentration, S. pneumoniae 163 Ery-R (MefA) ([2]; […]): ≤ 0.125 µg/mL

CCC1OC(=O)C(C)C(=O)C(C)C(OC2OC(C)CC(N(C)C)C2O)C(C)(OC)CC(C)C(=O)C(C)C2N(CCCCn3cc(-c4cccc(N)c4)nn3)C(=O)OC12C (stereo not drawn) [Entry 16b]
Minimum inhibitory concentration, S. pneumoniae 303 Ery-R (ermB) [3]: ≤ 0.125 µg/mL

CCC1OC(=O)C(C)C(=O)C(C)C(OC2OC(C)CC(N(C)C)C2O)C(C)(OC)CC(C)C(=O)C(C)C2N(CCCn3cc(-c4ccccc4)nn3)C(=O)OC12C (stereo not drawn) [Entry 11a]
Minimum inhibitory concentration, S. pneumoniae 303 Ery-R (ermB) [3]: inactive

CC[C@H]1OC(=O)[C@@](C)(F)C(=O)[C@H](C)[C@@H](OC2OC(C)CC(N(C)C)C2O)[C@@](C)(OC)C[C@@H](C)C(=O)[C@H](C)[C@H]2N(CCCCn3cc(-c4cccc(N)c4)nn3)C(=O)O[C@]12C (stereo partly drawn) [CEM-101, 11-N-4-(3-aminophenyl)-[1,2,3]triazol-1-yl]-butyl}-5-desosaminyl-3-oxo-2-fluoro-erythronolide A,-11,12-cyclic carbamate]
Cs, static concentration at 24 h [5]: 0.022 mg/L | Cs, static concentration at 24 h [10]: 0.11 mg/L | Cs, static concentration at 24 h [8]: 0.018 mg/L

Values after ≈ are worked out from the molar mass of the structure shown. Values joined by “and” are separate entries in the source; they are usually repeats but may differ in a detail not shown here. Equal entries are not always repeated. Where two headings read alike, the source gives them in different places.
